Test results: PubChem BioAssay AID1468 (National Center for Advancing Translational Sciences (NCATS), 2008)
Hit rate of the full screen: of about 280,000 compounds, about 1,100 (0.39%) were called active. The inconclusive results got no clear call from the source; some entries with a clear call stand among them for comparison. Calls follow the shape of the dose curve; as a rule, active = well fitted inhibition curve with a large enough effect; inconclusive = small, poorly fitted or top-dose-only effect, or effect the other way; inactive = flat fitted curve, though single readings scatter. Potencies beside an inconclusive call are fits to weak or partial responses and may not hold up.

Biological target: Microtubule-associated protein tau (Homo sapiens) (UniProt P10636)
Assay: qHTS for Inhibitors of Tau Fibril Formation, Fluorescence Polarization; also: nearly all actives have a fitted effect of over 55% in size
Conditions: K18 P301L tau heparin fibrillization, Alexa594 FP, 6 h; series mostly up to 57.7 µM
Summary of the method: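 FP of Alexa 594-tau after heparin (20 uM) induction. Substrate: human K18 P301L, 15 uM unlabeled, 0.24 uM labeled. Buffer 100 mM sodium acetate pH 7. 6 hr, 37 C.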
Potency is read from the fitted curve at half-maximal effect; tags tell the direction and shape of the fitted curve.

Chain of UniProt P10636 (P10636 whole entry, looked up): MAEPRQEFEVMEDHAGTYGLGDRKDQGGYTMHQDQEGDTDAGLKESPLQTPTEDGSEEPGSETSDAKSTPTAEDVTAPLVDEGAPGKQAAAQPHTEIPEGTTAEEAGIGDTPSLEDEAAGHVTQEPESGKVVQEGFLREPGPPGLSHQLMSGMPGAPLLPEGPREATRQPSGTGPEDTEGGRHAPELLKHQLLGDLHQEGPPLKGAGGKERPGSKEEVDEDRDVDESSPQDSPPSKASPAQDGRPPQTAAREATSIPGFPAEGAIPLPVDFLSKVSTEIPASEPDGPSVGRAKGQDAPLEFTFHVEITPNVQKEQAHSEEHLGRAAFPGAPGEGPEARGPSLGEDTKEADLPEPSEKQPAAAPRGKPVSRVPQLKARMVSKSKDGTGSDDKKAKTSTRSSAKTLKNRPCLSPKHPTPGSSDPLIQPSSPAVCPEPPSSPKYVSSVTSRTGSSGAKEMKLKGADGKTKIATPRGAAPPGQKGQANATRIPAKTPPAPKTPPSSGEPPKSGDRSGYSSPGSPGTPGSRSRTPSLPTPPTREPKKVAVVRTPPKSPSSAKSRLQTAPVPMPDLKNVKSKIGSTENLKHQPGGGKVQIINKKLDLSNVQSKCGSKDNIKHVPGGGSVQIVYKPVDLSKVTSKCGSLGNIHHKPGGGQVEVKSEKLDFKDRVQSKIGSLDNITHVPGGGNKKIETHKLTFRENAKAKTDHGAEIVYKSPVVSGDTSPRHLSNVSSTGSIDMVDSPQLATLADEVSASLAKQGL

Potency, inconclusive:
O=C(COc1ccc(Br)cc1Br)NC(=O)NC1CCCC1 31.6 µM [inhibitor, single point], COc1ccc(NC(=O)CSc2n[nH]c(-c3ccccc3)n2)cc1Cl 12.6 µM [inhibitor, partial curve], Cc1nn(-c2ccccc2)c2sc(C(=O)Nc3ccc(Br)cc3)cc12 11.2 µM [inhibitor, partial curve], COC(=O)c1sc(-c2ccccc2)cc1NC(=O)Nc1ccc(Cl)cc1 15.8 µM [inhibitor, partial curve], CC1(C)N=C(SCC(=O)Nc2ccc(Cl)cc2)C(c2ccc(Cl)cc2)=N1 20 µM [inhibitor, partial curve, poor fit], CCOc1ccccc1C(=O)Nc1ccccc1O 28.2 µM [activator, single point], COc1cc2nc(Nc3cccc(C)c3)nc(N)c2cc1OC 4.47 µM [activator, full curve, poor fit], CCOc1ccc(-c2cc(NC(=O)Nc3ccc(Cl)cc3)c(C(=O)OC)s2)cc1 8.91 µM [inhibitor, full curve], Nc1nonc1C(=O)NCCN=Cc1cc(Cc2ccccc2)cc(Br)c1O 39.8 µM [inhibitor, single point], COc1cccc(-n2nnnc2S(C)(=O)=O)c1 28.2 µM [inhibitor, partial curve, poor fit], Cc1onc(-c2ccc(Cl)cc2)c1-c1ccnn1S(=O)(=O)c1cccc(C(F)(F)F)c1 44.7 µM [inhibitor, single point], CCCCOc1cccc(C(=O)Nc2ccc(N3CCN(CC)CC3)cc2)c1 22.4 µM [activator, single point], O=[N+]([O-])c1ccc(-n2nnnc2-c2ccccc2)c([N+](=O)[O-])c1 10 µM [inhibitor, partial curve, poor fit], CCCc1nnc(NC(=O)CCC(=O)N2CCCCCC2)s1 4.47 µM [inhibitor, single point], CSCCC(=O)Nc1nc(-c2ccccn2)cs1 44.7 µM [inhibitor, single point], CCOC(=O)c1sc(NC(=O)Nc2ccccc2Cl)cc1C 39.8 µM [inhibitor, single point], Cc1cc(C)cc(NC(=O)CSc2nc(=O)[nH]c3c2CCC3)c1 44.7 µM [inhibitor, single point], CC(C)(C)c1ccc(Oc2nc3ccccn3c(=O)c2/C=C(\C#N)c2nc3ccccc3s2)cc1 7.94 µM [inhibitor, full curve, poor fit], Clc1ccc2c(N/N=C/c3ccccc3Br)ccnc2c1 1.12 µM [activator, single point], C=CCOC(=O)N[C@H](c1ccco1)C(C(C)=O)C(C)=O 0.447 µM [inhibitor, single point], CC(C)CNC(=O)NC(=O)COC(=O)c1ccccc1Sc1ccc(C(F)(F)F)cc1[N+](=O)[O-] 28.2 µM [inhibitor, single point], CN(C)c1ccc(/C=N\NC(=O)c2csnn2)cc1 17.8 µM [inhibitor, single point], O=C(CCC(=O)OCC(=O)c1ccc([N+](=O)[O-])cc1)NC1CCCCC1 15.8 µM [inhibitor, single point], Cc1ccc(OCC(=O)Nc2ccc3nc(SCC(=O)Nc4ccc(C)cc4C)sc3c2)cc1 22.4 µM [inhibitor, single point], CCCNS(=O)(=O)c1ccc(CCC(=O)NCc2ccco2)cc1 22.4 µM [inhibitor, single point], COc1cccc(NC(=O)CSc2ncc3c(n2)-c2ccc(Cl)cc2N(C)S3(=O)=O)c1 10 µM [inhibitor, partial curve], CCCNC(=O)c1ccccc1NC(=O)c1nsc2ccccc12 12.6 µM [inhibitor, partial curve, poor fit], N#CC1=C(N)N2C(=C(C#N)C1c1cccc(Br)c1)Nc1ccccc12 (configuration not stated) 20 µM [inhibitor, partial curve, poor fit], CCOc1ccc(CNC(=O)c2ccccc2NC(=O)c2nsc3ccccc23)cc1 10 µM [inhibitor, partial curve], O=C(OC1CCOC1=O)c1cc(-c2cccc(Br)c2)nc2ccccc12 (configuration not stated) 12.6 µM [inhibitor, partial curve], CO/N=C(\C)CCN1CCCc2nc(C)c(C)cc21 3.16 µM [inhibitor, partial curve], O=C(CSc1cccc2cccnc12)OCC(=O)c1ccc(Br)cc1 1 µM [inhibitor, single point], O=C(Nc1cccc(C(F)(F)F)c1)N1CCC(c2nc(-c3ccc(F)cc3)no2)CC1 25.1 µM [inhibitor, partial curve], CC(=O)CC(=O)Nc1nc(C)cc(C)n1 39.8 µM [inhibitor, single point], CCOC(=O)c1c(NC(=O)N/N=C/c2ccc(O)c(OC)c2)sc(C(C)=O)c1C 17.8 µM [activator, partial curve, poor fit], COc1ccc(NC(=O)CSc2nc3ccccc3nc2Cc2ccc(C)cc2)cc1Cl 14.1 µM [inhibitor, partial curve], Oc1ccc2ccccc2c1/C=N/Nc1nnc(-c2ncc[nH]2)c2ccccc12 3.98 µM [activator, partial curve], CCOC(=O)c1ccc(Nc2nc3nonc3nc2Nc2cccc(C)c2C)cc1 22.4 µM [inhibitor, partial curve, poor fit], O=C(Nc1ccc(-c2nc3cc(NC(=O)c4ccccc4F)ccc3o2)cc1)c1ccccc1F 25.1 µM [inhibitor, partial curve], COc1ccc([N+](=O)[O-])cc1NC(=O)Nc1cccc(Cl)c1 14.1 µM [inhibitor, partial curve], N=C1C=CC=C2C1=NC1(CCCCC1)N2O 1.26 µM [inhibitor, partial curve], CN(C)S(=O)(=O)c1cccn1-c1ncc(C(F)(F)F)cc1Cl 44.7 µM [inhibitor, single point], Cc1oc(=O)c(NC(=O)c2cccc(Cl)c2)cc1C(=O)c1ccccc1 28.2 µM [inhibitor, partial curve, poor fit]

Potency, inactive:
Cc1c(-c2ccccc2)oc2nc3c(c(=O)n(C)c(=O)n3C)n12, CCCn1ccc2c(OCC(=O)Nc3ccc(C(F)(F)F)cc3)cccc2c1=O, CCCSc1ncc(Cl)c(C(=O)N(Cc2cccc(Cl)c2)C2CCS(=O)(=O)C2)n1 (configuration not stated), COC(=O)CSC1=C(C#N)C(c2ccc3c(c2)OCO3)C2=C(CCCC2=O)N1 (configuration not stated), CCCCn1c(N)c(-c2nc3ccccc3s2)c2c([N+](=O)[O-])nn(C)c(=O)c21, Cc1ccc(C)c(NC(=O)CNS(=O)(=O)c2ccccc2)c1, COc1ccc(/C(C)=N/NC(=O)c2ccc(N(C)C)cc2)cc1, CCc1c(C)sc(NC(=O)CC#N)c1C#N, Oc1ccc(-c2nnc(SCC3CCCCC3)o2)cc1, O=C(c1cc2ccccc2c(=O)o1)N1CCc2ccccc2C1, CCOc1ccccc1NS(=O)(=O)c1ccc2[nH]c3c(c2c1)CCCCC3, COc1cc(OC)cc(C(=O)NCCSc2c[nH]c3ccccc23)c1, COc1cc2c(cc1NC(=O)CSc1nnc(Cc3cccs3)n1C)oc1ccccc12, CC1CCCC(C)N1C(=O)c1cccc2c1-c1ccccc1/C2=N/O (configuration not stated), COC(=O)c1sccc1S(=O)(=O)N1CCN(c2ccc(C)cc2C)CC1, CN1c2cccc3cccc(c23)N(C)C1(C)C, COc1ccccc1N1CCN(C(=O)Cc2cccs2)CC1, O=C(N=Nc1c(O)[nH]c2ccccc12)c1cc(-c2ccc(F)cc2)n[nH]1, CC(C)CCNC(=O)C(NS(=O)(=O)c1ccc2c(c1)c(=O)n(C)c(=O)n2C)c1ccccc1 (configuration not stated), CCc1ccc(OCC(=O)Nc2cc(-c3ccc(C)cc3)no2)cc1, CCc1ccccc1NC(=O)N1CCc2ccccc21, COc1ccc(C)cc1NS(=O)(=O)c1ccc2c3c(cccc13)C(=O)N2, CC1(C)C(c2cccs2)=[N+]([O-])C2(CCCCC/C2=N\NC(N)=S)N1O (configuration not stated), COc1ccccc1NC(=O)Cn1c(=O)n(Cc2cccs2)c(=O)c2cccnc21, Brc1ccc(-c2csc(Nc3nc(-c4ccc(Br)cc4)cs3)n2)cc1, COCCn1nnnc1C(c1cc2ccc(C)cc2[nH]c1=O)N(Cc1ccco1)Cc1cccs1 (configuration not stated), CCCCNC(=O)c1onc(CSc2ccc(C(C)C)cc2)c1C(=O)O, COc1cccc(/C=N/NC(=O)C(C)n2nnc3ccccc32)c1 (configuration not stated)

Potency, active:
O=S(=O)(c1ccc(NC(=S)NCCC(c2ccccc2)c2ccccc2)cc1)N1CCOCC1 14.1 µM
